Measured values from PubChem BioAssay AID504832 (National Center for Advancing Translational Sciences (NCATS), 2011).
Hit rate of the full screen: of about 310,000 compounds, about 18,000 (5.8%) were called active. Inconclusive means that the source gave no clear call. Such entries were picked first, then a sample of the others. Calls follow the shape of the dose curve; as a rule, active = well fitted inhibition curve with a large enough effect; inconclusive = small, poorly fitted or top-dose-only effect, or another doubt; inactive = no such curve, though single readings can be large or run the other way. Potencies of inconclusive entries are left out as doubtful fits.

Assay: Primary qHTS for delayed death inhibitors of the malarial parasite plastid, 48 hour incubation
Conditions: P. falciparum luciferase growth in erythrocytes; series mostly up to 28.7 µM; activity change, negative = inhibition: at the top concentration
How it was run: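 A one-generation exposure of luciferase-tagged malaria parasites in RPMI 1640/Albumax erythrocyte culture, 37 C and 5% CO2. Inhibition is inferred from decreased luminescence after adding detection reagent.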
% is scaled to controls: 0 for no effect and ±100 for the full control effect; potency is read from the fitted curve at half-maximal effect; tags tell the direction and shape of the fitted curve.

Compound	Potency	activity change, negative = inhibition
COc1ccc(C2CCCN2C(=S)Nc2cccc(Cl)c2C)cc1OC (stereo unspecified)	inconclusive [inhibitor, partial curve, poor fit]	–
O=S(=O)(c1ccc(Br)s1)N1CCN(c2ccnc3cc(Cl)ccc23)CC1	inconclusive [inhibitor, single point]	–
O=C(N/N=C/c1ccc(F)cc1)c1ccc(-n2cnnn2)cc1	inconclusive [inhibitor, single point]	–
Cc1ccc(CCNC(=O)c2coc3nc4ccccc4nc23)cc1	–	inactive: -20.8%
O=C(Nc1nc2nc(-c3ccccc3)cc(-c3ccccc3)n2n1)c1ccco1	active: 2.94 µM	–
Nn1cnnc1SC1CCCCC1NS(=O)(=O)c1ccccc1 (stereo unspecified)	inconclusive [inhibitor, partial curve, poor fit]	–
O=C(c1cc(C(=O)NCc2ccccc2)c(=O)n(Cc2ccccc2)c1)c1cc(Cl)ccc1O	active: 2.33 µM	–
CCN1C(=O)/C(=C\C=C\c2ccccc2[N+](=O)[O-])SC1=S	inconclusive [inhibitor, single point]	–
O=C(NN=C1CCCC1)c1ccc(O)cc1	–	inactive: -5.52%
Cc1ccccc1OCC(=O)Nc1ccc(C(=O)Nc2ccccc2C(=O)O)cc1	inconclusive [inhibitor, single point]	–
CCOC(=O)C1=C(c2ccccc2)NC(=O)NC1c1cc(OC)c(OC)c(OC)c1 (stereo unspecified)	inconclusive [inhibitor, partial curve]	–
Cc1ccc(S(=O)(=O)NCC(=O)NCC(=O)NCCc2ccccc2F)cc1C	inconclusive [inhibitor, single point]	–
Cc1ccc(C)c2c(N)c3c(nc12)CCCCC3 (tested in a mixture with another compound)	inconclusive [inhibitor, partial curve, poor fit]	–
O=C(COC(=O)C12CC3CC(CC(C3)C1)C2)Nc1ccc2[nH]c(=O)[nH]c2c1	inconclusive [inhibitor, single point]	–
CCN(CC)S(=O)(=O)c1cccc(NC(=O)COc2ncnc3sccc23)c1	–	inactive: -18.4%
Cc1[nH]n(-c2ccc(Cl)c(Cl)c2)c(=O)c1CCO	inconclusive [inhibitor, single point]	–
Cc1cccc(N2CCN(C(=O)c3cccc(NC4=NC5CS(=O)(=O)CC5S4)c3)CC2)c1C (stereo unspecified)	–	inactive: 16.7%
O=C(N1CCCC1)n1c(Cc2ccccc2)nc2ccccc21	–	inactive: -10.2%
COc1cccc(C(=O)NNc2c3ccccc3nc3ccccc23)c1	inconclusive [inhibitor, single point]	–
C=CCNC(=O)c1ccc(-c2nc(-c3ccc(Cl)c(Cl)c3)cs2)cc1	inconclusive [inhibitor, single point]	–
CC(=O)c1c(C)[nH]c(C(=O)OCC(=O)N2CCN(S(=O)(=O)c3ccc(C)cc3)CC2)c1C	inconclusive [inhibitor, single point]	–
Cc1cc(Nc2ccccc2)nc(N)n1	inconclusive [inhibitor, single point]	–
CCCNC(=O)CSCc1nc(-c2ccc(SC)cc2)oc1C	–	inactive: -3.8%
COc1ccc(CCN2C(=S)N(c3ccccc3)C(=O)C2CC(=O)O)cc1OC (stereo unspecified)	–	inactive: -18.2%

Compound	Potency	activity change, negative = inhibition
CCOc1ccc2c(c1)c1nnc(SCC3CCCO3)nc1n2C (stereo unspecified)	inconclusive [inhibitor, single point]	–
C#CCn1cccc(C(=O)Nc2ccc(OC)cc2)c1=O	–	inactive: 60.6%
COc1ccc(CCC(=O)Nc2cc3c4c(c2)CC(=O)N4CCC3)cc1	inconclusive [inhibitor, partial curve]	–
CCN(CC)S(=O)(=O)c1ccc(N2CCN(c3ccccc3O)CC2)nc1	inconclusive [inhibitor, partial curve, poor fit]	–
Cc1nnc(NC(=O)C(c2ccccc2)c2ccccc2)s1	inconclusive [inhibitor, partial curve]	–
O=C(NC1CCN(C(=O)N2c3ccccc3Sc3ccccc32)CC1)c1ccccc1Cl	inconclusive [inhibitor, partial curve]	–
CCCCN(C(=O)CCSc1ccc(F)cc1)c1c(N)n(Cc2ccccc2)c(=O)[nH]c1=O	active: 11.7 µM	–
COc1ccc2cc(CN(Cc3ccco3)C(=S)NCC3CCCO3)c(=O)[nH]c2c1 (stereo unspecified)	inconclusive [inhibitor, partial curve]	–
COc1ccc(CN2CCNC(=O)C2CC(=O)NC2CCCCC2)c(OC)c1 (stereo unspecified)	–	inactive: -16.8%
CCCC(=O)Nc1ccc2c(c1)nc(CN1CCCCC1)n2C	–	inactive: 5.13%
CC(=O)c1ccc(NC(=S)NC(=O)Cc2ccc(Cl)cc2)cc1	–	inactive: 7.29%
NC1=NC[C@@H](Cc2ccc(O)cc2)N1CC1CCCCC1	active: 6.57 µM	–
COc1ccc(C(C)=O)cc1COc1cccnc1[N+](=O)[O-]	–	inactive: -4.66%
COc1cccc(CNC(=O)CC2C(=O)NCCN2Cc2ccoc2)c1OC (stereo unspecified)	inconclusive [inhibitor, partial curve]	–
COc1cc(C(CCN2CCN(c3ccccc3)CC2)c2c(OC)cc(OC)c3ccc(=O)oc23)cc(OC)c1OC (stereo unspecified)	active: 13.1 µM	–
Cc1cc(C)c(C#N)c(N2CCCC2)n1	inconclusive [inhibitor, single point]	–
Cc1ccc(S(=O)(=O)/N=C2/NC(=O)/C(=C/c3ccc(Br)o3)S2)cc1	–	inactive: 1.9%
CCOC(=O)[C@H]1[C@H]2COc3cc(OC)ccc3[C@@H]2N2C(=O)CN(Cc3ccc(OC)cc3)C(=O)[C@@]12C	active: 11.7 µM	–
CCN(CC(=O)Nc1ccccc1C(F)(F)F)C(=O)CN1C(=O)NC2(CCCC2)C1=O	–	inactive: -9.08%
CN(C)S(=O)(=O)c1ccc(NC(=O)CN2CCCCCC2)cc1	–	inactive: 3.69%
CCn1ncc(CNC(=O)C2(C)CC2(Cl)Cl)c1C (stereo unspecified)	–	inactive: 6.92%
CCOC(=O)N(c1ccccc1)P1(=S)OCCO1	inconclusive [inhibitor, partial curve]	–
CN(C(=O)c1ccccc1OCc1ccc(F)cc1)c1c(N)n(Cc2ccccc2)c(=O)[nH]c1=O	inconclusive [inhibitor, single point]	–
CCC(C)NCCOCCOc1ccc(Cl)cc1Br (stereo unspecified)	inconclusive [inhibitor, single point]	–

Compound	Potency	activity change, negative = inhibition
COc1ccc(/C=N/NC(=O)c2ccc(O)cc2)cc1CN1CCCc2ccccc21	inconclusive [inhibitor, single point]	–
CC(C)N1CCN(Cc2ccc3c(c2)Cc2ccccc2-3)CC1CCO (stereo unspecified)	inconclusive [inhibitor, partial curve, poor fit]	–
CCC(C)(C)C(=O)O[C@@H]1C[C@H](C)C=C2C=C[C@H](C)[C@@H](CC[C@H]3C[C@@H](O)CC(=O)O3)[C@H]21	–	inactive: -6.35% [at 12.8 µM]
CC12C=CC(=O)C=C1[C@@H](F)CC1C2C(O)CC2(C)C1CC[C@]2(O)C(=O)CO (stereo partly specified)	–	inactive: -18.7%
Cc1cc(Cl)cc(Br)c1OCCNCC(C)O (stereo unspecified)	inconclusive [inhibitor, partial curve, poor fit]	–
COc1cc2ccccc2cc1C(=O)OCC(=O)N(CC(C)C)c1c(N)n(Cc2ccccc2)c(=O)[nH]c1=O	active: 10.4 µM	–
Cc1ccc(NC(=O)Cc2nc(CN(C)CC(=O)Nc3ccc(C)cc3)cs2)cc1	active: 13.1 µM	–
CC(=O)Nc1cc2cc(NS(=O)(=O)c3ccc(C)cc3)ccc2oc1=O	–	inactive: 1.49%
Fc1ccc(-n2c(Cc3ccccc3)nnc2SCc2nc(-c3cccs3)no2)cc1	active: 10.4 µM	–
Cc1cc(C)cc(NC(=O)C2CCCN2/C=C/C(=O)C(F)(F)F)c1 (stereo unspecified)	–	inactive: 26.3%
O=C(Cc1ccc(-n2c(=O)c3ccccc3n(Cc3cccc([N+](=O)[O-])c3)c2=O)cc1)NCC1CCCO1 (stereo unspecified)	inconclusive [inhibitor, single point]	–
CCN(CC)CCNC(=O)CS(=O)Cc1nc(-c2ccc(Cl)cc2)oc1C (stereo unspecified)	–	inactive: -4.22%
COc1cc(-c2nnc(SCc3cc(=O)oc4cc(C)ccc34)o2)cc(OC)c1OC	inconclusive [inhibitor, single point]	–
CCn1c(SCC(=O)Nc2ccc(C)cc2)nc2nc3c(cc2c1=O)COC(C)(C)C3	inconclusive [inhibitor, partial curve]	–
CCn1ccc(C(=O)NC2=NCCS2)n1	–	inactive: 41.6%
COc1cccc(OC)c1C(=O)N1CCN(S(=O)(=O)c2ccc(C)cc2)CC1	inconclusive [inhibitor, partial curve]	–
O=C(CSC1=NCCN1)Nc1cccc(C(F)(F)F)c1	inconclusive [inhibitor, single point]	–
CCOC(=O)Cc1c(C)nc2c(-c3ccccc3OC)c(C)nn2c1C	inconclusive [inhibitor, full curve, poor fit]	–
Cc1ccc(NC(=O)c2cc(-c3ccc(C)o3)nc3ccccc23)nc1	inconclusive [inhibitor, single point]	–
Cc1ccccc1C1c2[nH]c3ccccc3c2C[C@H]2C(=O)N(C3CCN(Cc4ccccc4)CC3)CC(=O)N12 (stereo partly specified)	active: 3.29 µM	–
COc1ccc(/C=N/N=C(/N)N[N+](=O)[O-])c(OC)c1	–	inactive: 79.7%
N#Cc1cc2c(=O)n3ccccc3nc2n(CCCn2ccnc2)c1=N	inconclusive [inhibitor, single point]	–
CCOc1ccc(NC(=O)CN2CCC(n3cnc4cc(F)ccc43)CC2)cc1	inconclusive [inhibitor, single point]	–
